Experimental data from paper PMC12136788.
Some of the results follow.

T1: UNK ZnF1-3 (human, UniProt Q9C0B0 31-174)
T1 sequence: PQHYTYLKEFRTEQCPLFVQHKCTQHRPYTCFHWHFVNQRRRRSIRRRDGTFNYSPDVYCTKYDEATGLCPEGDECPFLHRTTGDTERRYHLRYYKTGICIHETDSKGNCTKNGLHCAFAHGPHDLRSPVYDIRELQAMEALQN

B1: chr22:32879901:32879902:+_ENSG00000100225_ENST00000397426|hu_mus|hu_hu_hu_mus_False|78_98 (ssRNA)
RNA: GGGAGUUCUACAGUCCGACGAUCCUCUUCCAUACUCGCAUUAUCUUGAAUUGACUCAGCUUCAAAAUUUUGACUAGGCCCUUCCAUACUGUCAUCAGUCCAGGCAUCAAAUGGGGUGGCCUGUCCUUGGGAUGAAUCAGUCCCCAACAGAGGAUUGAGCAUCA
B2: chr18:6437031:6437032:-_ENSMUSG00000024240_ENSMUST00000028100|mus_hu|motif|central (ssRNA)
RNA: GGGAGUUCUACAGUCCGACGAUCGCAGUACUGUACAGAUAAUUGCUGUAUUCUUAAUUUACAGAUGUUGAUUUUUUUCCGGUUAACAGUAAGAAAAGAAAAAUUGAAGCAUGAGAGAUGAGCAUUGCUGUCAAGUCCCCACAGCAACAGAGGAUUGAGCAUCA
B3: chr5:21408736:21408737:-_ENSMUSG00000042453_ENSMUST00000161356|mus_hu|mus_mus_mus_hu_False|58_78 (ssRNA)
RNA: GGGAGUUCUACAGUCCGACGAUCGUUGACAGAGUUGUAGAUGGUGGCUUCAUGGAACUGGAACGGGGAGCAGCCAAUGCUAUUGGAAGAGGAAGGAAGGCACUGGGUCUGUACGAGCUGCCAGGAAUCCGAUCUUGCAUCCUUCAACAGAGGAUUGAGCAUCA
B4: chr12:39763582:39763583:-_ENSG00000139116_ENST00000544797|hu_mus|hu_hu_hu_mus_False|58_68 (ssRNA)
RNA: GGGAGUUCUACAGUCCGACGAUCCUCUAGGAACUGGGCAUUCACUUUGAAUUCAGGAGGGGGCAGCCCAUUUUUAAUUGCUAUGUGCUUUUUCUCAUCAAUACUCUUGAACAGGUGUCUAACAGCACGAGAGAUGAUGCCCUGCAACAGAGGAUUGAGCAUCA
B5: chr12:110720550:110720551:+_ENSG00000174437_ENST00000539276|hu_hu|FALSE|FALSE (ssRNA)
RNA: GGGAGUUCUACAGUCCGACGAUCUUCUUCAAACCAAGCCAAAACAAAAGAUAUACAUGCUGCCAGUAAUAAAAUCCUAACUAGCAAGUCUUCAAACUGCUCAAUCACAAGUUCCAGCAAGGUUUUUCCUUCUUCAGCCGGUAACAACAGAGGAUUGAGCAUCA
B6: chr6:41067180:41067181:+_ENSG00000001167_ENST00000341376|hu_hu|FALSE|FALSE (ssRNA)
RNA: GGGAGUUCUACAGUCCGACGAUCACAAAAUUCAAAGUCAUCUCCCCCCAAAUAAAAAAUUCAGCAACAAGGCUGGCAUUACUAUGUACAAACUUACAGACACAAAUAAAUAGCAUCUUCUAACUGUUGGCAGCUUAAGCACUCCAACAGAGGAUUGAGCAUCA
B7: 76460248_76461003_3569_CDS_ENSMUSG00000059323_ENSMUST00000168185|mouse|control|control (ssRNA)
RNA: GGGAGUUCUACAGUCCGACGAUCCAAGGUUUUCAGGUGCACAGCAUCUUGGAAGGCACCGCCCAGGGCAGCCUGGUGGCUCAGGAAGAAACUGGAGCUGAAGCCACAGGCCUGUAGGCGCAGGGUGCUGAGCAUGGGGCAGGCCAACAGAGGAUUGAGCAUCA
B8: chr17:30658727:30658728:-_ENSG00000108666_ENST00000577809|hu_hu|motif|central (ssRNA)
RNA: GGGAGUUCUACAGUCCGACGAUCUUCAAAUCAUCUUAAAUAGCAAUCCUAUGAACAAUUAUAACUGCAAUUUCAAACACGGAGACUUAAAUAUACAACUUGAUCAUACAAUUAUCUCAAAACAUAUGAUCAAAAACUUUGGUCCAACAGAGGAUUGAGCAUCA
B9: 30706281_30707774_1103_CDS_ENSMUSG00000040850_ENSMUST00000041231|mouse|control|control (ssRNA)
RNA: GGGAGUUCUACAGUCCGACGAUCUAAAAAUCUUGGGACUAAAACUUGACUGCUUCCCACUGGGAGGUUCAGGCUUCUCAGAAUUCUUGUAAAUAUCUUCGGUACAUAUGGAUCCCAAUCUAUGUAUCCUAUAUUAUCUGUAGCCAACAGAGGAUUGAGCAUCA
B10: chr17:57652765:57652766:+_ENSG00000108406_ENST00000251241|hu_hu|motif|central (ssRNA)
RNA: GGGAGUUCUACAGUCCGACGAUCAUCAUAAUCAUAAUCAACAGACUCUGCCAUCUGAAAAAGUAACUCACAACUUUUUUCGGUUUCAAACUGGCCAGUCAGAAAAACCAAGAUGUCUCCAGCCAUUUCAUUCAAAUGGAUAUCCAACAGAGGAUUGAGCAUCA
B11: 32644763_32644883_1895_3pUTR_ENSMUSG00000002997_ENSMUST00000036497|mouse|control|control (ssRNA)
RNA: GGGAGUUCUACAGUCCGACGAUCAAAAGGUAGAAAAUGAAAUGAUUGACACUUUACCAUCUGAUGAAUUAUAAAAAGAAUGGAAUACCACGUUAGAGCGCAUGAGCCACUGCCAGCUUCCCCCCUAAAGGAGCAUAGUCACUACAACAGAGGAUUGAGCAUCA
B12: chr10:117126822:117126823:-_ENSMUSG00000020184_ENSMUST00000020408|mus_mus|motif|central (ssRNA)
RNA: GGGAGUUCUACAGUCCGACGAUCAGGUGCCUUUACUGGCUGAGUCUUCUCUGCAGCCCACAACUCACACAUUUUAGAUUACGGCAGUUUCAGAAUUUCAAUAACUUAAAUAUACAAUCCUUCACAUAGUCUUUAACUCUUUACCAACAGAGGAUUGAGCAUCA
B13: chr1:182792627:182792628:+_ENSMUSG00000038806_ENSMUST00000038091|mus_mus|motif|central (ssRNA)
RNA: GGGAGUUCUACAGUCCGACGAUCAGAGUGUGUACCAGAGGCCGAGCUCCGAGGACUGCCAGGUCGGUCGGCUGCCACCUCGGCAGCAUCAAUGCCGUCUUCCCGAGCACAGCAGCUCUGCUCCGAAGUCCCAGGAGCAUCCUCCAACAGAGGAUUGAGCAUCA
B14: chr16:94690476:94690477:+_ENSMUSG00000040785_ENSMUST00000117648|mus_mus|motif|central (ssRNA)
RNA: GGGAGUUCUACAGUCCGACGAUCAGAAAUGUAAUGUAUUCAAGGUUCACAUGUCUGUAUUUGCCACUGCCUACAGGUCACGGAAAAUACCUAGUUUUUGAAUAGUUUCUAAUACAGUUAGCUUGUUUUCAGGCCACAUUACAACAACAGAGGAUUGAGCAUCA
B15: 29794794_29795651_712_3pUTR_ENSMUSG00000019715_ENSMUST00000019859|mouse|control|control (ssRNA)
RNA: GGGAGUUCUACAGUCCGACGAUCGCCUGCUUCACACGCUGCUGCUCUGCCUCUCGAAGCUUUAGGUUGAGAAUCUUGGCUCUGUGGCGGUGCUCCUCUUUCAGCUUCUCCUGAUGGCCCAGGGCCUCCCUGGUACUCUUCUCCCAACAGAGGAUUGAGCAUCA
B16: chr9:44139228:44139229:+_ENSMUSG00000032123_ENSMUST00000054708|mus_mus|FALSE|FALSE (ssRNA)
RNA: GGGAGUUCUACAGUCCGACGAUCCCAGUUGUGGUAAAGCAGUCCCAAGGUGGUAAAGAAAAAUGGUAUCAUGAAGUAAAGGGAAAAGAUAUGAUCAUCUCGAUAAUCACCUUCCAGUUCCACCAGGUUGAAGACAAUGAUAGACAACAGAGGAUUGAGCAUCA
B17: chr17:57816259:57816260:+_ENSG00000062716_ENST00000262291|hu_mus|motif|central (ssRNA)
RNA: GGGAGUUCUACAGUCCGACGAUCCAGAUAAAGCAGAAAGGUGUGCAGUCCUGUUCCAAGACCAACAGAGGACAAAAUCCCCAGGCCGGUCCAGUAUGCAUACAAAAGAAACUGCUUCUCUAUCCGCUGCACAUACUGUUGGUGCAACAGAGGAUUGAGCAUCA
B18: chr17:62499352:62499353:-_ENSG00000108654_ENST00000581693|hu_hu|motif|central (ssRNA)
RNA: GGGAGUUCUACAGUCCGACGAUCGUCUUAUUUGAUCCACAAUCUUCCUUAUUUGGGGUUCAAAGCCCAUAUCAAGCAUUCGGUCUGCUUCAUCAAGGACAAGGUAGGUUGUUCUUCUCAGAUUGGUUUUUCCACACUCUAAAACAACAGAGGAUUGAGCAUCA
B19: chr13:100204638:100204639:-_ENSMUSG00000052727_ENSMUST00000064762|mus_mus|motif|central (ssRNA)
RNA: GGGAGUUCUACAGUCCGACGAUCGGGGGUGGGCACCUGGCCAGUGAGAUCUUUUUGGGUGGCCAGUGGCUGCUUUAGGAAAUCGGGAUGUUUGAGUUUCUCCAGUCCUUCUAGGAUGUUGUACUGGGUACUGUUUCCGGGAAACAACAGAGGAUUGAGCAUCA
B20: 100489142_100489262_224_3pUTR_ENSMUSG00000008763_ENSMUST00000008907|mouse|control|control (ssRNA)
RNA: GGGAGUUCUACAGUCCGACGAUCCUGCCAUGCCCGCGCCCCGGCGCGAUGCUCAGAGGCGGCUGCCCGCCCCGGGAGGCGCCCGGCGAAGACGACGAGUUGCAGUAGGUCGGUUCCACUCGGUCCCCUCCGGAGCCUCCUCCGCAACAGAGGAUUGAGCAUCA
B21: chr6:119226881:119226882:+_ENSG00000111875_ENST00000229595|hu_hu|motif|central (ssRNA)
RNA: GGGAGUUCUACAGUCCGACGAUCUGGAUUUUCCCUUAAUUCUGUCUCAGUAUAUUCAUUAUUUACAUAAUAGCCAACUCGGAUAAAUUCUUGUCCUCGAUAGGUACAAGUAAUUAGCACAACAGUUACGCCUACUGCAUCUGCCAACAGAGGAUUGAGCAUCA
B22: 71579700_71580607_959_3pUTR_ENSMUSG00000024052_ENSMUST00000129635|mouse|control|control (ssRNA)
RNA: GGGAGUUCUACAGUCCGACGAUCUGGGAAUUACCCUGAAAUGUGUGUUCUCUGAUGGUGUAAUCGUAGCUGUCCUUGGAUGAUAGUCAUACCGUUCUCUUUUGGUGACCUUGGUGGACUCUGGGAACCCGCCCCACGUCCACUCAACAGAGGAUUGAGCAUCA

Biological target: T1, UNK ZnF1-3
Experiment: nsRBNS (natural sequence RNA bind-n-seq); RBNS binding buffer (assumed for nsRBNS): 25 mM Tris pH 7.5, 150 mM KCl, 3 mM MgCl2, 0.01% Triton X-100, 500 ug/ml BSA, 20 U/ml SUPERase-In, 4 C; UNK is unkempt and MSI1 is Musashi-1; names of the RNAs are library labels; protein concentration not given here; high values mean tight binding

| Binder | binding signal [enrichment R] |
| --- | --- |
| B1 | 1.18 |
| B2 | 2.13 |
| B3 | 1.55 |
| B4 | 1.58 |
| B5 | 1.21 |
| B6 | 2.7 |
| B7 | 1.06 |
| B8 | 0.793 |
| B9 | 0.885 |
| B10 | 0.971 |
| B11 | 2.02 |
| B12 | 1.03 |
| B13 | 0.788 |
| B14 | 0.656 |
| B15 | 0.632 |
| B16 | 1.41 |
| B17 | 0.959 |
| B18 | 0.706 |
| B19 | 0.761 |
| B20 | 0.69 |
| B21 | 1.02 |
| B22 | 0.577 |
